This note sets out measurements from the BET-seq Pho4 binding data (Le et al. 2018).

The other results are listed elsewhere or left out. These are noisy estimates, calculated here from bound and input reads.

In the assay the target is T1, Pho4 (S. cerevisiae) (UniProt P07270).
T1 sequence: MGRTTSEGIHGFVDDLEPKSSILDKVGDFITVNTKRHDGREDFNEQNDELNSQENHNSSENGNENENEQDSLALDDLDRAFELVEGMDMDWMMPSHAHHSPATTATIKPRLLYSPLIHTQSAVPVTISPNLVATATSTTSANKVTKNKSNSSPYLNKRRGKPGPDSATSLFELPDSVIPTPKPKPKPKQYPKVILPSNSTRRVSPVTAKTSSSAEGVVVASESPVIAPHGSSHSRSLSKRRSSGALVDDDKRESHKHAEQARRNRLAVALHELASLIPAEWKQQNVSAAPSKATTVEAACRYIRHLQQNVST
The experiment in a line: relative binding free energy (BET-seq); higher = weaker binding. The note with it: reference: library average.
Consider ATTTCCACGTGAGGTG, for which the “relative binding free energy” value turned out to be 0.26 kcal/mol.

As for TGGGTCACGTGCAATT, the “relative binding free energy” value came out at 0.18 kcal/mol.

In the case of TGGGACACGTGTATAT, the “relative binding free energy” value was 0.13 kcal/mol.

AGGCGCACGTGGGAAA: the “relative binding free energy” value is -0.08 kcal/mol.

Take AGTAGCACGTGGAGGA: the “relative binding free energy” value is -0.14 kcal/mol.

Consider TTAGTCACGTGATCAT, for which the “relative binding free energy” value worked out at 0.11 kcal/mol.

For AAGGTCACGTGAGAAG, the “relative binding free energy” value was 0.32 kcal/mol.

In the case of GGATACACGTGGGAGC, the “relative binding free energy” value came to 0.18 kcal/mol.

In the case of CTGGTCACGTGGAGCT, the “relative binding free energy” value worked out at 0.09 kcal/mol.

As for AGGTGCACGTGAGAAA, the “relative binding free energy” value amounted to 0.28 kcal/mol.

Consider AGGCGCACGTGAAGTT, for which the “relative binding free energy” value was found to be 0.21 kcal/mol.

For the sequence TTATGCACGTGAATTT, the “relative binding free energy” value worked out at 0.27 kcal/mol.

With TCATACACGTGTGTAT, the “relative binding free energy” value was 0.06 kcal/mol.

For ATTGGCACGTGGATTT, the “relative binding free energy” value is -0.08 kcal/mol.

Turning to TCGGACACGTGGCGGT, the “relative binding free energy” value came out at 0.04 kcal/mol.

On to ATTAGCACGTGGAGCG, for which the “relative binding free energy” value is -0.11 kcal/mol.

On to GTGTCCACGTGGGTGG, for which the “relative binding free energy” value is -0.04 kcal/mol.

As to AAGTACACGTGGGTTG, the “relative binding free energy” value is 0 kcal/mol.

TGAATCACGTGCTGGG: the “relative binding free energy” value amounted to 0.09 kcal/mol.

For ATAAACACGTGATTGA, the “relative binding free energy” value is 0.18 kcal/mol.

As to AGTATCACGTGTGGTT, the “relative binding free energy” value was determined as 0.23 kcal/mol.

On to GTGAGCACGTGGTTGG, for which the “relative binding free energy” value is -0.2 kcal/mol.

In the case of AAGTTCACGTGAACGT, the “relative binding free energy” value turned out to be 0.46 kcal/mol.

On to GTTGGCACGTGGGCAC, for which the “relative binding free energy” value was -0.28 kcal/mol.

As for GAGCTCACGTGTTATG, the “relative binding free energy” value was 0.39 kcal/mol.

On to TTTGACACGTGAGTGA, for which the “relative binding free energy” value came out at 0.1 kcal/mol.

Regarding TGGATCACGTGATAGG, the “relative binding free energy” value is 0.25 kcal/mol.

Consider CTGATCACGTGTGGGC, for which the “relative binding free energy” value stood at 0.17 kcal/mol.

Consider GTTATCACGTGTGGTA, for which the “relative binding free energy” value turned out to be 0.27 kcal/mol.

For GCCGGCACGTGGAAGG, the “relative binding free energy” value is -0.04 kcal/mol.

As to AAATTCACGTGGGCGT, the “relative binding free energy” value was 0.38 kcal/mol.

Take TGTGGCACGTGTTTGT: the “relative binding free energy” value is -0.07 kcal/mol.

With TTTAGCACGTGGATAG, the “relative binding free energy” value was -0.04 kcal/mol.

For the sequence TTGATCACGTGGTTCG, the “relative binding free energy” value worked out at 0.25 kcal/mol.

For the sequence GTGTCCACGTGGATAG, the “relative binding free energy” value turned out to be 0.1 kcal/mol.

With GTTGTCACGTGATTAA, the “relative binding free energy” value turned out to be 0.2 kcal/mol.

TTTGGCACGTGGGGGC: the “relative binding free energy” value was -0.22 kcal/mol.

For the sequence TATTGCACGTGGTTTG, the “relative binding free energy” value is -0.13 kcal/mol.

For the sequence AGTGACACGTGGTTTC, the “relative binding free energy” value is 0 kcal/mol.

On to GGGGGCACGTGTTACA, for which the “relative binding free energy” value was -0.18 kcal/mol.

For TTGGGCACGTGAAAGT, the “relative binding free energy” value came to 0.21 kcal/mol.

On to TGGTCCACGTGTGATG, for which the “relative binding free energy” value was 0.03 kcal/mol.

With TATGGCACGTGTGGTA, the “relative binding free energy” value was -0.01 kcal/mol.

In the case of AATTTCACGTGCGTGA, the “relative binding free energy” value was determined as 0.24 kcal/mol.

As to GGATGCACGTGATGTG, the “relative binding free energy” value was determined as 0.19 kcal/mol.

CGTGGCACGTGATGGC: the “relative binding free energy” value stood at 0.1 kcal/mol.

As to TATATCACGTGCTGCT, the “relative binding free energy” value is 0.17 kcal/mol.

As for ATACTCACGTGGTAGT, the “relative binding free energy” value came out at 0.1 kcal/mol.

GGGATCACGTGGGACT: the “relative binding free energy” value was 0.05 kcal/mol.

For the sequence GGATCCACGTGTTGGT, the “relative binding free energy” value was 0.24 kcal/mol.

Consider AATTTCACGTGCGTTG, for which the “relative binding free energy” value is 0.18 kcal/mol.

As for CGTTTCACGTGAGTGA, the “relative binding free energy” value worked out at 0.18 kcal/mol.

For the sequence TTGGGCACGTGAGATG, the “relative binding free energy” value worked out at 0.15 kcal/mol.

As for ATTTGCACGTGAACTG, the “relative binding free energy” value is 0.36 kcal/mol.

Take ATTTACACGTGATATG: the “relative binding free energy” value was determined as 0.23 kcal/mol.

With GGAGACACGTGGTAAG, the “relative binding free energy” value was 0.14 kcal/mol.

For AAGTTCACGTGTGGAT, the “relative binding free energy” value was determined as 0.32 kcal/mol.

For the sequence TCAGTCACGTGAAGTA, the “relative binding free energy” value came out at 0.25 kcal/mol.

Turning to TGAGTCACGTGGCGAT, the “relative binding free energy” value was -0.01 kcal/mol.

For GTGATCACGTGAGAAG, the “relative binding free energy” value turned out to be 0.43 kcal/mol.

Regarding AGTGCCACGTGTGCGT, the “relative binding free energy” value was -0.11 kcal/mol.

Turning to TTGAGCACGTGGTGGA, the “relative binding free energy” value is -0.08 kcal/mol.

As to GAGGGCACGTGTTATC, the “relative binding free energy” value turned out to be 0.06 kcal/mol.

As to TTGTTCACGTGCATGA, the “relative binding free energy” value was found to be 0.14 kcal/mol.

On to AGGGGCACGTGGAGCT, for which the “relative binding free energy” value is -0.07 kcal/mol.

As for TTTGCCACGTGTGATG, the “relative binding free energy” value came to 0.04 kcal/mol.

On to AATGGCACGTGTTTGT, for which the “relative binding free energy” value was -0.05 kcal/mol.

Take GCGGTCACGTGTATGG: the “relative binding free energy” value is 0.07 kcal/mol.

TGGTTCACGTGGGTAA: the “relative binding free energy” value came out at 0.23 kcal/mol.

As for AATGGCACGTGATAAT, the “relative binding free energy” value was -0.03 kcal/mol.

On to AGGTCCACGTGAAGTG, for which the “relative binding free energy” value turned out to be 0.14 kcal/mol.

Consider GTTGTCACGTGCTCGG, for which the “relative binding free energy” value is -0.01 kcal/mol.

Regarding GAAGGCACGTGAGAGT, the “relative binding free energy” value worked out at 0.24 kcal/mol.

On to ATTGGCACGTGCTCGG, for which the “relative binding free energy” value is -0.2 kcal/mol.

With CCAGGCACGTGGGTAG, the “relative binding free energy” value was -0.22 kcal/mol.

As for TCGTACACGTGTGATT, the “relative binding free energy” value was determined as 0.14 kcal/mol.

As for GAGAGCACGTGAGTGG, the “relative binding free energy” value was 0.12 kcal/mol.

In the case of GGTTGCACGTGGTCGG, the “relative binding free energy” value is 0.09 kcal/mol.

With GTATCCACGTGAGTGG, the “relative binding free energy” value came to 0.24 kcal/mol.

For the sequence GGTTTCACGTGGCCTG, the “relative binding free energy” value was 0.11 kcal/mol.

As to TAAGTCACGTGGGAGA, the “relative binding free energy” value worked out at 0.07 kcal/mol.

On to CGAGACACGTGGGAGT, for which the “relative binding free energy” value was 0 kcal/mol.

For the sequence GGGGTCACGTGTGGGG, the “relative binding free energy” value turned out to be 0.26 kcal/mol.

On to ATGGTCACGTGAGAAT, for which the “relative binding free energy” value stood at 0.41 kcal/mol.

Consider GTGGACACGTGGGGAA, for which the “relative binding free energy” value is 0 kcal/mol.

Take GGTGGCACGTGTGATG: the “relative binding free energy” value was determined as 0.11 kcal/mol.

In the case of CGTGGCACGTGGATAG, the “relative binding free energy” value was -0.07 kcal/mol.

Take ATAATCACGTGTGGAT: the “relative binding free energy” value was found to be 0.18 kcal/mol.

Regarding AATGACACGTGGAAGT, the “relative binding free energy” value was found to be 0.11 kcal/mol.

Take CGTAACACGTGGGTAA: the “relative binding free energy” value was -0.01 kcal/mol.

Take CTTAGCACGTGCGTGT: the “relative binding free energy” value is -0.14 kcal/mol.

On to TCAATCACGTGGGTCT, for which the “relative binding free energy” value stood at 0.19 kcal/mol.

Turning to CTTTTCACGTGACGTT, the “relative binding free energy” value was 0.33 kcal/mol.

Consider TTTTCCACGTGCTGAG, for which the “relative binding free energy” value was 0.27 kcal/mol.

With CCAAGCACGTGGGGTG, the “relative binding free energy” value is -0.3 kcal/mol.

As for TGGTGCACGTGGCGGT, the “relative binding free energy” value is -0.06 kcal/mol.

Regarding TATGACACGTGAGTTA, the “relative binding free energy” value came out at 0.16 kcal/mol.

TGGGCCACGTGGCTTG: the “relative binding free energy” value is -0.06 kcal/mol.

For the sequence TTGTACACGTGCGGTT, the “relative binding free energy” value was 0.09 kcal/mol.

Regarding AAGTGCACGTGATAGG, the “relative binding free energy” value was -0.05 kcal/mol.

Take GGTTTCACGTGGGCGC: the “relative binding free energy” value is 0.19 kcal/mol.

In the case of ATTAACACGTGATGTG, the “relative binding free energy” value is -0.01 kcal/mol.

For the sequence GTTTACACGTGAGGAG, the “relative binding free energy” value is 0.22 kcal/mol.

On to TGTAGCACGTGCGTAG, for which the “relative binding free energy” value was -0.12 kcal/mol.

For TAATACACGTGGGTAA, the “relative binding free energy” value is -0.08 kcal/mol.

With CTTTTCACGTGTTGCG, the “relative binding free energy” value amounted to 0.28 kcal/mol.

With TGTGGCACGTGTAGTT, the “relative binding free energy” value was 0 kcal/mol.

Regarding GAGGGCACGTGATTAA, the “relative binding free energy” value amounted to 0.12 kcal/mol.

On to AAAGACACGTGAGTGG, for which the “relative binding free energy” value amounted to 0.16 kcal/mol.

Take ATTAGCACGTGCTGGT: the “relative binding free energy” value is -0.05 kcal/mol.

AGTAGCACGTGCTTAG: the “relative binding free energy” value is -0.09 kcal/mol.

Regarding ATTAACACGTGGTATG, the “relative binding free energy” value was -0.25 kcal/mol.

Regarding ACATTCACGTGGGTGT, the “relative binding free energy” value turned out to be 0.17 kcal/mol.

With AATAGCACGTGGGGAG, the “relative binding free energy” value is -0.3 kcal/mol.

For the sequence CGAATCACGTGTGGTT, the “relative binding free energy” value came to 0.21 kcal/mol.
